Assay results from US20170157165A1 (RIBOMIC, published 2017).

Biological target: T1, human FGFR4 fused with the Fc portion of IgG (manufactured by R&D Systems) (human, UniProt P22455 22-369)
T1 construct: Bought construct, captured on Protein A on a CM5 chip (about 1,000 RU); not shown: Fc portion of IgG
T1 sequence (looked up): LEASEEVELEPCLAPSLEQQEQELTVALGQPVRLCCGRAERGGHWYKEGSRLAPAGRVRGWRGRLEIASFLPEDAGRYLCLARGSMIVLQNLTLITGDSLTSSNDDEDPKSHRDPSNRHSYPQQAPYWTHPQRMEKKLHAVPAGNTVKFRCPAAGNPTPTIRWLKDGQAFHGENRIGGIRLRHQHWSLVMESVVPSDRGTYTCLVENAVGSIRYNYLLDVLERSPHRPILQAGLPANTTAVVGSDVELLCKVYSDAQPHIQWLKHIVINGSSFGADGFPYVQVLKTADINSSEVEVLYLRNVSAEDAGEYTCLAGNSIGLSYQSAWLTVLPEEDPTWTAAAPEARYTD
Assay: SPR (BIAcore2000), receptor-Fc captured on Protein A on CM5 chip, FGF2 0.1 uM + heparin 0.1 uM as analyte
Procedure: BIAcore2000 manufactured by BIAcore was used for the measurement. As directed in BIAcore Company's protocol, Protein A (21181, manufactured by PIERCE) was immobilized on a CM5 sensor chip. About 1,000 RU of human FGFR1α (IIIc), R2α (IIIc), R3 (IIIc), R4 (manufactured by R&D Systems) fused with the Fc portion of IgG (manufactured by R&D systems) was each immobilized thereon. As analyte, a mixture of FGF2 (0.1 μM), heparin (0.1 μM) (manufactured by Pfizer) and aptamer (0.15 μM) was flown. Before an inhibitory test, a mixture of FGF2 and heparin was confirmed to bind to 4 kinds of receptors. […] A sensorgram showing that the aptamer shown by aptamer ID 1 inhibits binding of FGF2 and FGFR1α(IIIc), 2α(IIIc), 3(IIIc), 4 is shown in FIG. 2.

- binding result: binds
B1: Human FGF2 (manufactured by Peprotech Inc.) (ligand)
chain: not shown
notes: also called bFGF; basic fibroblast growth factor
